Data reported in the supplement of paper PMC8728848.
The other results are listed elsewhere or left out.

Legend:
Assay in all cases: glycan array binding signal (z-score within array); higher = stronger binding
Details in all cases: glycan notation: IUPAC condensed, linker removed
Gal6S(b1-4)Glc6S = molecular target: Gal6S(b1-4)Glc6S
Method in brief: (§1)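 The Consortium for Functional Glycomics database supplied 3228 glycan arrays, of which those lacking an available protein sequence were dropped. The binding signal, a within-array Z-score, was averaged across arrays of the same protein sequence and across linkers. Negative scores can be read as non-binding.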

Gal6S(b1-4)GlcNAc = molecular target: Gal6S(b1-4)GlcNAc
Method in brief: as §1

Gal6S(b1-4)GlcNAc6S = molecular target: Gal6S(b1-4)GlcNAc6S
Method in brief: as §1

GalNAc(a1-3)Gal = molecular target: GalNAc(a1-3)Gal
Method in brief: as §1

GalNAc(a1-3)GalNAc = molecular target: GalNAc(a1-3)GalNAc
Method in brief: as §1

[1] = molecular target: GalNAc(a1-3)GalNAc(b1-3)Gal(a1-4)Gal(b1-4)Glc
Method in brief: as §1

[2] = molecular target: GalNAc(a1-3)GalNAc(b1-3)Gal(a1-4)Gal(b1-4)GlcNAc
Method in brief: as §1

GalNAc(b1-3)Gal = molecular target: GalNAc(b1-3)Gal
Method in brief: as §1

[3] = molecular target: GalNAc(b1-3)Gal(a1-4)Gal(b1-4)GlcNAc
Method in brief: as §1

[4] = molecular target: GalNAc(b1-3)Gal(a1-4)Gal(b1-4)GlcNAc(b1-3)Gal(b1-4)Glc
Method in brief: as §1

[5] = molecular target: GalNAc(b1-3)Gal(a1-6)Gal(b1-4)Glc
Method in brief: as §1

GalNAc(b1-3)GalNAc = molecular target: GalNAc(b1-3)GalNAc
Method in brief: as §1

GalNAc(b1-3)GlcNAc = molecular target: GalNAc(b1-3)GlcNAc
Method in brief: as §1

GalNAc(b1-4)Gal(b1-4)Glc = molecular target: GalNAc(b1-4)Gal(b1-4)Glc
Method in brief: as §1

GalNAc(b1-4)GlcNAc = molecular target: GalNAc(b1-4)GlcNAc
Method in brief: as §1

[6] = molecular target: GalNAc(b1-4)GlcNAc(b1-2)Man
Method in brief: as §1

[7] = molecular target: GalNAc(b1-4)GlcNAc(b1-2)Man(a1-3)[GalNAc(b1-4)GlcNAc(b1-2)Man(a1-6)]Man(b1-4)GlcNAc(b1-4)GlcNAc
Method in brief: as §1

[8] = molecular target: GalNAc(b1-4)GlcNAc(b1-3)GalNAc(b1-4)GlcNAc
Method in brief: as §1

GalNAc(b1-4)GlcNAc6S = molecular target: GalNAc(b1-4)GlcNAc6S
Method in brief: as §1

GalNAc(b1-6)GalNAc = molecular target: GalNAc(b1-6)GalNAc
Method in brief: as §1

GalNAc3S(b1-4)GlcNAc = molecular target: GalNAc3S(b1-4)GlcNAc
Method in brief: as §1

GalNAc3S(b1-4)GlcNAc3S = molecular target: GalNAc3S(b1-4)GlcNAc3S
Method in brief: as §1

[9] = molecular target: GalNAc3S(b1-4)[Fuc(a1-3)]GlcNAc
Method in brief: as §1

GalNAc4S6S(b1-4)GlcNAc = molecular target: GalNAc4S6S(b1-4)GlcNAc
Method in brief: as §1

GalNAc6S(b1-4)GlcNAc = molecular target: GalNAc6S(b1-4)GlcNAc
Method in brief: as §1

Glc(a1-4)Glc = molecular target: Glc(a1-4)Glc
Method in brief: as §1

[10] = molecular target: Glc(a1-4)Glc(a1-4)Glc(a1-4)Glc
Method in brief: as §1

Glc(a1-6)Glc(a1-6)Glc = molecular target: Glc(a1-6)Glc(a1-6)Glc
Method in brief: as §1

[11] = molecular target: Glc(a1-6)Glc(a1-6)Glc(a1-6)Glc
Method in brief: as §1

Glc(b1-4)Glc = molecular target: Glc(b1-4)Glc
Method in brief: as §1

Glc(b1-6)Glc = molecular target: Glc(b1-6)Glc
Method in brief: as §1

GlcA(b1-3)Gal = molecular target: GlcA(b1-3)Gal
Method in brief: as §1

GlcA(b1-3)GlcNAc = molecular target: GlcA(b1-3)GlcNAc
Method in brief: as §1

GlcA(b1-6)Gal = molecular target: GlcA(b1-6)Gal
Method in brief: as §1

[12] = molecular target: GlcA3S(b1-3)Gal(b1-4)GlcNAc(b1-2)Man
Method in brief: as §1

[13] = molecular target: GlcA3S(b1-3)Gal(b1-4)GlcNAc(b1-3)Gal(b1-4)Glc
Method in brief: as §1

[14] = molecular target: GlcNAc(a1-3)Gal(b1-4)GlcNAc
Method in brief: as §1

[15] = molecular target: GlcNAc(a1-4)Gal(b1-3)GlcNAc
Method in brief: as §1

[16] = molecular target: GlcNAc(a1-4)Gal(b1-4)GalNAc
Method in brief: as §1

[17] = molecular target: GlcNAc(a1-4)Gal(b1-4)GlcNAc
Method in brief: as §1

[18] = molecular target: GlcNAc(a1-4)Gal(b1-4)GlcNAc(b1-3)Gal(b1-4)Glc
Method in brief: as §1

[19] = molecular target: GlcNAc(a1-4)Gal(b1-4)GlcNAc(b1-3)Gal(b1-4)GlcNAc
Method in brief: as §1

[20] = molecular target: GlcNAc(a1-4)Gal(b1-4)GlcNAc(b1-3)Gal(b1-4)GlcNAc(b1-3)Gal(b1-4)GlcNAc
Method in brief: as §1

[21] = molecular target: GlcNAc(a1-4)Gal(b1-4)GlcNAc(b1-3)Gal(b1-4)[Fuc(a1-3)]GlcNAc(b1-3)Gal(b1-4)[Fuc(a1-3)]GlcNAc
Method in brief: as §1

[22] = molecular target: GlcNAc(a1-6)Gal(b1-4)GlcNAc
Method in brief: as §1

B1: Epa3to1 (Candida glabrata) (protein)
chain: MGSSHHHHHHSSGLVPRGSHMKRELSSQNPFGYPIGCSPQDVAIIPGLTMELYSYPIVSGTPPNCYDASYVDPEYPRTGYLKRKMVGKSTGVTGNLNYKYSVEKACMVKYGNLPAGYNYNEPLTVSNFTMILYGYFKAQTTGLHTFFVNADDLLYINFGAGNAFDCCKREDSKTKLGEYVAYDIWHVDSSKNKVSLFLEKDLYYPIRMFFNNREYDSSLDLSFSVNGATDQISDFSGYLYSVPDQPDTCPAHIGYDTTCR
- glycan array binding signal (z-score) (Gal6S(b1-4)Glc6S): 6.81
- glycan array binding signal (z-score) (Gal6S(b1-4)GlcNAc): 2
- glycan array binding signal (z-score) (Gal6S(b1-4)GlcNAc6S): 9.56
- glycan array binding signal (z-score) (GalNAc(a1-3)Gal): -0.585
- glycan array binding signal (z-score) (GalNAc(a1-3)GalNAc): -0.305
- glycan array binding signal (z-score) [1]: -0.469
- glycan array binding signal (z-score) [2]: 0.025
- glycan array binding signal (z-score) (GalNAc(b1-3)Gal): 0.105
- glycan array binding signal (z-score) [3]: -0.495
- glycan array binding signal (z-score) [4]: 0.126
- glycan array binding signal (z-score) [5]: -0.584
- glycan array binding signal (z-score) (GalNAc(b1-3)GalNAc): -0.174
- glycan array binding signal (z-score) (GalNAc(b1-3)GlcNAc): -0.332
- glycan array binding signal (z-score) (GalNAc(b1-4)Gal(b1-4)Glc): 0.247
- glycan array binding signal (z-score) (GalNAc(b1-4)GlcNAc): -0.393
- glycan array binding signal (z-score) [6]: -0.988
- glycan array binding signal (z-score) [7]: 0.011
- glycan array binding signal (z-score) [8]: -0.26
- glycan array binding signal (z-score) (GalNAc(b1-4)GlcNAc6S): -0.256
- glycan array binding signal (z-score) (GalNAc(b1-6)GalNAc): -0.4
- glycan array binding signal (z-score) (GalNAc3S(b1-4)GlcNAc): -0.299
- glycan array binding signal (z-score) (GalNAc3S(b1-4)GlcNAc3S): 0.281
- glycan array binding signal (z-score) [9]: -0.269
- glycan array binding signal (z-score) (GalNAc4S6S(b1-4)GlcNAc): -0.139
- glycan array binding signal (z-score) (GalNAc6S(b1-4)GlcNAc): -0.544
- glycan array binding signal (z-score) (Glc(a1-4)Glc): -0.015
- glycan array binding signal (z-score) [10]: -0.029
- glycan array binding signal (z-score) (Glc(a1-6)Glc(a1-6)Glc): -0.217
- glycan array binding signal (z-score) [11]: -0.221
- glycan array binding signal (z-score) (Glc(b1-4)Glc): -0.61
- glycan array binding signal (z-score) (Glc(b1-6)Glc): -0.415
- glycan array binding signal (z-score) (GlcA(b1-3)Gal): -0.01
- glycan array binding signal (z-score) (GlcA(b1-3)GlcNAc): -0.275
- glycan array binding signal (z-score) (GlcA(b1-6)Gal): 0.35
- glycan array binding signal (z-score) [12]: 0.286
- glycan array binding signal (z-score) [13]: -0.437
- glycan array binding signal (z-score) [14]: -0.637
- glycan array binding signal (z-score) [15]: -0.807
- glycan array binding signal (z-score) [16]: -0.908
- glycan array binding signal (z-score) [17]: -0.345
- glycan array binding signal (z-score) [18]: -0.208
- glycan array binding signal (z-score) [19]: -0.188
- glycan array binding signal (z-score) [20]: -0.389
- glycan array binding signal (z-score) [21]: -0.037
- glycan array binding signal (z-score) [22]: 0.388
